From PubChem BioAssay AID686992 (Broad Institute, 2013)
The campaign covered roughly 260,000 compounds. About 960 (0.37%) were called active. The shares of active, inactive and inconclusive entries below differ from those in the screen.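 The calls were made as follows: active = mean E-selectin-positive cell signal at least 10% of the positive control, reached in at least 60% of replicates, without over 20% cell loss; inconclusive = no rule given, readout overlaps actives, possibly toxicity-flagged; inactive = the rest, including those meeting only one limit.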 Some compounds were tested as several samples or in several runs, with calls that do not always agree.

Each molecule was assayed against E-selectin (Homo sapiens) (UniProt P16581) (assay: inducers of endothelial E-selectin expression – imaging, HUVEC, immunofluorescence imaging, single point, primary screen (AID 686992;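 also: signal is the percent of cells scored E-selectin positive by PE staining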)). Details: at 7.58 µM, stronger effect = higher value, normalized: neutral wells 0, TNF-alpha wells 100.
In short: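 Material: HUVEC primary endothelial cells; Amount: 3,000 cells per well; Dosing: single concentration; Medium: EGM-2 growth medium on 0.1% gelatin-coated wells; Read-out basis: percent E-selectin-positive cells; Signal: immunofluorescence imaging; Control set: TNF-alpha, DMSO.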

Sequence of UniProt P16581 (P16581 whole entry, looked up): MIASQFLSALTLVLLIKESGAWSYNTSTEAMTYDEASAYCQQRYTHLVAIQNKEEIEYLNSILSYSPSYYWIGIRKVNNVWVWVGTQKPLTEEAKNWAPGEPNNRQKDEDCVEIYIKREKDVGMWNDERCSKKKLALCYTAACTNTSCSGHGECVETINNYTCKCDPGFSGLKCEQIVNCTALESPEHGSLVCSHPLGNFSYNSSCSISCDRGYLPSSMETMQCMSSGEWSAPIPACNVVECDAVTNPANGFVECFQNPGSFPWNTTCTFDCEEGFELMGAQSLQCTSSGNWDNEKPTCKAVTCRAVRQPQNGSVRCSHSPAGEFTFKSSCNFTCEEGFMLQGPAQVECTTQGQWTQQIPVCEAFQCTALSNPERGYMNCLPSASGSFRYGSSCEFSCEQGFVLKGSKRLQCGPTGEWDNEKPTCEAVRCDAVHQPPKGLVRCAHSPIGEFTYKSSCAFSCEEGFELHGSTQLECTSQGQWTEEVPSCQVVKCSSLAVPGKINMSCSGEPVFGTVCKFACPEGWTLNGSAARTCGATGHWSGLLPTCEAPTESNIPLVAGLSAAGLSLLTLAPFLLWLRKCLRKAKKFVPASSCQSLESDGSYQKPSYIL

SMILES | activation
CCCc1cn(CC[C@H]2CC[C@@H](NC(=O)C3CCCC3)[C@@H](CO)O2)nn1 | inactive: -0.0455%
COc1ccc(C(=O)C2CCN(C(=O)c3ccc(F)cc3)CC2)cc1 | inconclusive: 60.8%
CC(=O)Nc1ccc(S(=O)(=O)NCCS(=O)(=O)N2CCN(c3ccccc3F)CC2)cc1 | inconclusive: 27.3%
C[C@@H]1CN([C@H](C)CO)C(=O)c2cccc(NC(=O)C3CCOCC3)c2O[C@H]1CN(C)C(=O)Nc1ccccc1 | active: 173%
CC(=O)c1cccc(NC(=O)C2=CN3CCS(=O)(=O)N=C3C=C2)c1 | active: 75.2%
CO[C@H]1CN(C)C(=O)c2ccc(NS(C)(=O)=O)cc2OC[C@@H](C)N(CC2CCCCC2)C[C@H]1C | inactive: 0.23%
C[C@H]1CN([C@@H](C)CO)C(=O)c2cc(-c3cccnc3)cnc2O[C@H]1CN(C)C(=O)C1CCOCC1 | inconclusive: 42.8%
Cc1ccc(S(=O)(=O)N2CCN(CC(=O)N/N=C\c3ccncc3)CC2)cc1 | inconclusive: 46%
CC(C)C(=O)Nc1ccc2c(c1)C(=O)N(C)[C@H]1CC[C@H](CC(=O)NCc3ccccc3F)O[C@@H]1CO2 | inactive: 0.0645%
C[C@H]1CN([C@@H](C)CO)C(=O)Cc2cc(NS(C)(=O)=O)ccc2O[C@H]1CN(C)S(=O)(=O)c1cn(C)cn1 | inconclusive: 54.3%
O=C(Nc1cccc(Br)c1)c1cccc(OC(=S)N2CCOCC2)c1 | inconclusive: 43.7%
Cc1ccc(Oc2cccc3c2S(=O)(=O)N([C@H](C)c2ccccc2)C[C@@H](COCc2ccccc2)O3)cc1 | inconclusive: 26.8%
CCN(CC)CCNc1ncnc2c1sc1nc(N3CCOCC3)c3c(c12)CCCC3 | inactive: -0.288%
CCOC(=O)N1CCC(N2CCN(c3ccccc3)CC2)CC1 | inconclusive: 46.2%
CC(C)Cc1ccc(CN2CCCC(NC(=O)CCn3cnnn3)C2)cc1 (stereo unspecified) | inconclusive: 46.9%
C[C@H]1CN([C@@H](C)CO)C(=O)Cc2cc(NS(C)(=O)=O)ccc2O[C@@H]1CN(C)Cc1ccncc1 | active: 449%
COc1ccc(CN(C)C(=O)c2cc(S(=O)(=O)Nc3ccccc3F)ccc2C)c(OC)c1 | inconclusive: 34.4%
CC1CCC(NC(=O)COC(=O)c2cccnc2Cl)CC1 (stereo unspecified) | inconclusive: 55.9%
COc1ccc(NC(=O)N(C)C[C@@H]2Oc3c(NC(=O)Nc4ccc(C(F)(F)F)cc4)cccc3C(=O)N([C@@H](C)CO)C[C@H]2C)cc1 | inactive: -0.543%
CCn1c(SCC(=O)N(C)Cc2ccc(OC)c(F)c2)nc2cc(S(N)(=O)=O)ccc21 | active: 42.3%
Cc1noc(C)c1COc1ccccc1C(=O)N1CCN(S(=O)(=O)c2ccc(F)c(F)c2)CC1 | active: 94.1%
CC1CC[C@@]2(OC1)O[C@H]1CC3[C@@H]4C[C@@H](O)[C@@]5(O)C[C@@H](O)[C@H](O)C[C@]5(C)[C@H]4CC[C@]3(C)[C@H]1[C@@H]2C (stereo partly specified) | inconclusive: 26.1%
Cc1ccccc1Cn1cc(NC(=O)CCCn2nc([N+](=O)[O-])cc2C)cn1 | inconclusive: 53.4%
CC(=O)Nc1ccc2c(c1)C(=O)N(C)[C@@H]1CC[C@@H](CC(=O)NCC3CC3)O[C@H]1CO2 | inactive: -0.093%

SMILES | activation
Cc1noc(C)c1NC(=O)N(C)C[C@H]1Oc2ccc(NS(=O)(=O)c3c(C)noc3C)cc2C(=O)N([C@H](C)CO)C[C@@H]1C | active: 30.9%
CC(C)CCNC(=O)c1ccc2c(Cl)c3c(nc2c1)CCC3 | inconclusive: 26.3%
COc1ccccc1C(=O)NNC(=O)c1cccc(Br)c1 | inconclusive: 64.8%
COc1ccc(CC2(c3ccccc3)NC(=O)NC2=O)cc1 (stereo unspecified) | inactive: -0.167%
COc1ccc(NC(=O)CCn2c(=O)c3cccn3c3ccccc32)cc1 | inconclusive: 34.5%
CC1C(=O)N(Cc2cn(CC3CCCCC3)nn2)CCS(=O)(=O)N1Cc1ccc(-c2ccncc2)cc1 (stereo unspecified) | inactive: 0.218%
C[C@@H]1CN([C@H](C)CO)C(=O)c2cc(C3=CCCC3)cnc2O[C@@H]1CN(C)C(=O)Nc1ccccc1 | active: 59.3%
C[C@H]1CCCCO[C@H](CN(C)Cc2ccccc2)[C@@H](C)CN([C@@H](C)CO)C(=O)c2cc(NC(=O)CCCN(C)C)ccc2O1 | inconclusive: 29.8%
C=CCn1c(SCC(=O)c2c(N)n(CCC)c(=O)n(C)c2=O)nnc1-c1ccncc1 | inconclusive: 39.2%
COc1ccccc1CSc1nc2c(c(=O)n(C)c(=O)n2C)n1C | active: 48.4%
CC(C)NC(=O)Nc1ccc2c(c1)CC(=O)N([C@@H](C)CO)C[C@H](C)[C@@H](CN(C)S(=O)(=O)c1cn(C)cn1)O2 | inconclusive: 28.6%
C[C@H]1CN([C@@H](C)CO)C(=O)c2cc(NC(=O)Nc3ccc4c(c3)OCO4)ccc2O[C@@H]1CN(C)S(=O)(=O)c1ccc(F)cc1 | active: 50.3%
C[C@@H]1CN([C@H](C)CO)C(=O)c2cc(NS(C)(=O)=O)ccc2O[C@H]1CN(C)C(=O)Nc1ccc2c(c1)OCO2 | active: 197%
C[C@H](CO)N1C[C@H](C)[C@@H](CN(C)S(=O)(=O)c2ccccc2)Oc2ccc(NC(=O)CCCN(C)C)cc2CC1=O | inconclusive: 3.55%
COc1ccc(NC(=O)CSc2nc(N)c(NC(=O)c3cccs3)c(=O)[nH]2)cc1 | inconclusive: 37.6%
O=c1[nH]cnc(O)c1C(c1ccc(Br)cc1)c1c(O)nc[nH]c1=O | inconclusive: 49.5%
CCCc1c(OCCCCc2nn[nH]n2)ccc(C(C)=O)c1O | inconclusive: 79.5%
COc1cccc(C(=O)Nc2cc(C)c3c(=O)oc4ccccc4c3n2)c1 | inconclusive: 117%
O=C(c1ccccc1)N1CC2(C1)[C@H](c1ccccc1)[C@@H](CO)N2Cc1ccccn1 | inactive: -0.0085%
C[C@@H]1COc2cc(N3CCN(Cc4ccccc4F)CC3)ccc2S(=O)(=O)N1 | inconclusive: 26.4%
CCCCN(C)CCNS(=O)(=O)c1ccc2c(c1)n(C)c(=O)c(=O)n2C | active: 164%
CO[C@H]1CN(C)C(=O)c2cc(NC(C)=O)ccc2OC[C@H](C)N(C(=O)c2ccc(F)cc2)C[C@H]1C | inactive: -0.103%
CN(CC(=O)Nc1cccc(F)c1)C(=O)CN1c2cccc3cccc(c23)S1(=O)=O | inactive: -1.41%
CO[C@@H]1CN(C)C(=O)c2ccc(NC(C)=O)cc2OC[C@H](C)N(C(=O)C2CCCCC2)C[C@@H]1C | inactive: -0.287%

SMILES | activation
COc1ccc(-c2ccc(CN3C(CC(C)C)C(=O)N(Cc4cn(CC5CCCCC5)nn4)CCS3(=O)=O)cc2)cn1 (stereo unspecified) | inconclusive: 73.4%
O=C1CCC([N+](=O)[O-])C(c2ccccc2C(F)(F)F)N1 (stereo unspecified) | inconclusive: 27.8%
CN1c2ccc(-c3cccc(C#N)c3)cc2[C@H]2[C@H](CCN2C(=O)NC2CCCC2)[C@@H]1CO | inactive: 0.395%
CCN(CC)CCCN1C=C2C(=O)C(C)(OC(=O)C3CCCC3)C(=O)C(c3ccccc3)=C2C=C1CCCC(=O)OC (stereo unspecified) | inconclusive: 49.7%
CN(CC(=O)Nc1ccc(Br)cc1)Cc1ccccc1 | active: 97.4%
COC(=O)c1cccc(CN2C(=O)C(C)Sc3ccc(C#N)cc32)c1 (stereo unspecified) | inactive: -0.073%
COCCCNC(=O)CNC(=O)c1nn(-c2ccc(OC)cc2OC)c(=O)c2ccccc12 | inconclusive: 29%
O=C(C[C@H]1CC[C@H]2[C@@H](COC[C@@H](O)CN2S(=O)(=O)c2ccc(Cl)cc2)O1)NCCN1CCCC1 | inconclusive: 69.4%
O=C(O)C1CCCN1C(=O)C1CCN(S(=O)(=O)c2cccc(C(F)(F)F)c2)CC1 (stereo unspecified) | inconclusive: 35%
Cc1ccc(S(=O)(=O)N2CCOCC2)cc1C(=O)NC1CCCC1 | active: 31.2%
C[C@@H]1CN([C@H](C)CO)C(=O)c2cccc(NC(=O)Nc3ccc(F)cc3)c2O[C@H]1CN(C)C(=O)NC1CCCCC1 | active: 65.8%
O=C(O)c1c(C(=O)O)c(-c2ccc(Cl)c(Cl)c2)n2c1CSC2 | active: 58.4%
Cc1cc2cc(CNC(=O)c3ccc(S(=O)(=O)N4CCCC4)cc3)ccc2n1C | inconclusive: 32.4%
CC(C)NC(=O)N(C)C[C@H]1Oc2ccc(NC(=O)CCC(F)(F)F)cc2CC(=O)N([C@H](C)CO)C[C@@H]1C | active: 42.7%
CC(=O)N1CC23C=CC(CC2CC12CCCCCC2)O3 (stereo unspecified) | active: 35.2%
Cc1ccc(NCc2n[nH]c(=S)n2-c2ccccc2)cc1 | active: 30.3%
C[C@@H]1CN([C@H](C)CO)C(=O)c2cc(C3=CCCC3)cnc2O[C@@H]1CN(C)C(=O)c1ccc(F)cc1 | inconclusive: 44.2%
CCCN1C[C@H](C)[C@H](OC)CN(C)C(=O)c2ccc(NC(=O)c3cccc(F)c3)cc2OC[C@H]1C | inactive: -0.027%
C[C@H](CO)N1C[C@H](C)[C@H](CN(C)S(=O)(=O)c2ccccc2)Oc2cc(C#Cc3ccncc3)ccc2S1(=O)=O | inactive: -0.0905%
CC(C)(O)C#Cc1ccc([C@@H]2[C@H]3CN(S(C)(=O)=O)CCCCN3[C@H]2CO)cc1 | inactive: 0.066%
C[C@H](CO)N1C[C@H](C)[C@@H](CN(C)Cc2ccc(Oc3ccccc3)cc2)Oc2ccc(NC(=O)Nc3ccc(C(F)(F)F)cc3)cc2C1=O | active: 273%
C[C@@H]1CCCCO[C@@H](CN(C)CC2CCCCC2)[C@@H](C)CN([C@H](C)CO)C(=O)c2cc(NS(=O)(=O)c3ccccc3)ccc2O1 | inactive: 0.001%
COc1ccc(C2=Nc3ccccc3N(C(=O)c3ccncc3)C2C(=O)NC(C)(C)C)cc1 (stereo unspecified) | inconclusive: 53.4%
